Over roughly 33,000 sequences, “E-score (-0.5 to 0.5)” has its median near -0.054; the highest 2% begin near 0.35. Some of the results follow.
Molecular target: T1, Stb5 (UniProt P38699)
T1 sequence: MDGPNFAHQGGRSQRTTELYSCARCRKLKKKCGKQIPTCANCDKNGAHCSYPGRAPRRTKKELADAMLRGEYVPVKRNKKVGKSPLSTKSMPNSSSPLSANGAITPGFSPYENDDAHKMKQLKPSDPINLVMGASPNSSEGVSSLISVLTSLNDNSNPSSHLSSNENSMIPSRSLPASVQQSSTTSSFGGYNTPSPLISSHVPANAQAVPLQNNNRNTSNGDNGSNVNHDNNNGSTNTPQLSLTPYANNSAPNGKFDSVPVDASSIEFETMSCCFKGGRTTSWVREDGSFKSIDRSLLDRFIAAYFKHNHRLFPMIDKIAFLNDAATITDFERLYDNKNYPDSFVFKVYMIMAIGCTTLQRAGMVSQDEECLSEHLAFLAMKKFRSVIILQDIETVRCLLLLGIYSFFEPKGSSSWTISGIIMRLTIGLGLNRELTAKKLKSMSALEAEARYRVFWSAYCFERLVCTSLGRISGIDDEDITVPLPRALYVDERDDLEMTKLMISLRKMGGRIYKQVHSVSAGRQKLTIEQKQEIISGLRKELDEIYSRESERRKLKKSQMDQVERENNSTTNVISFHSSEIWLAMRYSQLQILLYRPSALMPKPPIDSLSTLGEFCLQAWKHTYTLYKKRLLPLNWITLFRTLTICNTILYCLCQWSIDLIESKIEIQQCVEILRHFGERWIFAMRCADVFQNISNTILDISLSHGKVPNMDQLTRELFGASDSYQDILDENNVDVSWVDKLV
Experiment: PBM E-score (8-mer binding enrichment) (E-score (-0.5 to 0.5)); higher = stronger / more preferred TF binding; most listed sequences are background and not binding sites
Conditions: protein concentration: 200 nM; construct: GST-full length
How it was run: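 Yeast transcription factors carrying a GST tag, as full-length proteins or DNA-binding domains, were produced by PURExpress in vitro transcription/translation. About 100-200 nM protein was applied to universal all-10-mer Agilent arrays, double-stranded by primer extension on fresh or once-stripped slides. Bound protein was detected with fluorescent anti-GST, and scans were normalised with masliner. The Universal PBM Analysis Suite gave each ungapped eight-base word, pooled with its reverse complement, an E-score, a modified Wilcoxon-Mann-Whitney statistic.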

Sequence | PBM E-score
ATAAGAAG | -0.0004
ACAAGAGT | -0.209
ATGTTCAG | -0.124
CACTGTAA | -0.0759
CTGACACA | -0.192
AGCAACAG | -0.0278
CGCGTCTA | 0.0516
GCTCCGGA | 0.368
ACGGTCTA | 0.0527
TGCTTACA | -0.182
ACGTATTG | 0.0526
GCACGGAC | 0.285
AGCGCTGG | -0.0227
AACTTCCA | -0.0146
AATCCATT | -0.187
AGGCCGAT | 0.295
GATGCAGC | 0.0949
CAATTTCC | 0.132
ATACATCC | 0.295
CAACTAGG | -0.211
CTCCCTGA | -0.182
AAGCTAAC | -0.118
ATATTGAG | -0.114
AATTGCCT | -0.11
CCGTCTTC | 0.208

Sequence | PBM E-score
ACGGAGAA | 0.188
AGACCCAT | -0.217
CTACCTGA | -0.162
CACCAAAG | -0.0465
ATGAACCC | 0.133
CACTTTGC | -0.0943
CGGGAGCA | 0.141
GGTGCAGA | 0.0449
GCAGCAAC | -0.0309
TATGTCCA | 0.133
CACTCTGG | -0.197
AGCCAATA | -0.115
GAGAAGGC | -0.197
AAATAGTC | 0.23
GGAATCTA | -0.12
CCATGGGG | -0.192
CACTCCCC | 0.0717
CGAGGTGA | -0.00576
GACCGCCA | 0.317
AACTTGGG | 0.00547
CGTGAGTA | -0.0904
AAGCTCGC | -0.205
CACCACCC | -0.0691
CAACCGCA | -0.0614
ATGATCTC | -0.295

Sequence | PBM E-score
CGTACTTA | 0.199
AGATAGCG | -0.171
AACGACCG | 0.173
AGTAAATA | 0.0513
ATCTCTGC | -0.21
CGACGCTC | 0.122
GTTTGCAA | -0.0728
AGGTTGTC | -0.204
CTGGGCCC | 0.0619
CCTAGTCG | -0.0474
CTACGAGC | -0.152
ACGCTGTC | 0.0255
AAGGCCTC | -0.17
ATATTTTC | 0.0999
ACTCAAGA | -0.163
CTGCACAC | -0.175
CCGCGCAA | 0.204
CGATTCGA | -0.0986
ACACTAGT | -0.221
AATGCCCC | 0.128
AATTGGGA | -0.0477
AACCTGTG | -0.218
TAACGCTA | 0.102
ATTTACTG | -0.0363
ATGGCTTG | -0.134

Sequence | PBM E-score
AACAATGT | -0.0728
ACGCTTCT | -0.237
CCCGTACA | 0.0487
GATAGCTA | -0.159
CGACTGAC | -0.021
CAAATATC | 0.11
GTACCAGA | -0.2
TGGTTTAA | -0.231
ATCTCGTG | -0.136
ATTCCCCC | 0.116
ATCACTCC | 0.255
CACGCCCC | -0.13
ATACGCAG | -0.28
GTGCAGTA | -0.0157
GCCAACAC | -0.134
GAGCTGGA | -0.107
CAATCTTC | -0.167
AAAAGCGC | 0.121
GAAATGGC | 0.0144
ACCTAAGT | 0.0418
ATTGTCAA | -0.18
AACTAACC | 0.0977
CGAGAGCC | -0.13
CAGTTACC | -0.115
ACGGGACT | 0.343

Sequence | PBM E-score
GATAAATC | 0.249
TCCCTCCA | -0.146
ACGCCGCA | 0.354
CAGCGGTA | 0.294
CATAGAAG | -0.126
AGCCTAGA | -0.206
AATTGACA | -0.0344
CGTAGGGC | -0.0383
CAGCCGGA | 0.14
AATACTGC | -0.0596
ACGGCACC | 0.175
GCCCACAA | -0.138
CATTCCTA | -0.217
ACTCCTTA | -0.048
TCGAATCA | -0.163
AAGTATAA | -0.144
TCATTCCA | -0.171
GTGCCGCA | 0.202
TCGAGGCA | -0.122
CAATGGCG | 0.0853
AGCTCGAA | -0.0836
CAAGCCAC | -0.275
AGACCCTA | -0.132
AAATACGC | 0.108
AAGTCTTC | -0.346

Sequence | PBM E-score
ATTCAGCG | 0.0232
GACCCACA | 0.0704
AGATGTTC | -0.0574
ACAATTCG | -0.00889
CGGCACAA | 0.256
AAATCCGC | 0.354
ATACGAAA | -0.0473
CCGCCCGA | 0.307
AAATCGAG | -0.148
ACCAGGGG | -0.13
GGTTTGTA | -0.0172
ACTAATAC | 0.0638
CCATGTAC | -0.197
CGGCCTTC | 0.316
CGCTGCAC | -0.0234
GCCGTAAC | 0.282
CTGTTAAA | 0.00799
TGGAACAA | -0.3
CTTCGCAC | 0.0158
AGTTACGG | 0.187
AATGCGCA | -0.122
GTCTCATA | 0.051
CAGACAGC | -0.156
GTGCGTAA | -0.0375
ACAAGAGC | -0.113

Sequence | PBM E-score
ATGTATTG | 0.0133
AATTCCTG | -0.0811
AACAATAC | -0.148
ATTACAAA | -0.0401
TCACCACA | 0.00819
CAGGTATC | -0.102
CATTTTTC | 0.0263
AACCCAGC | -0.169
GCGGACAC | 0.333
GCCTATAA | 0.0249
GCCTCAGA | -0.0989
CGAACTCC | 0.209
CAACCCCG | 0.371
AATTGTCT | -0.238
AGGGTTGG | -0.225
CAATTTTA | -0.00732
TACCGATA | 0.28
GTAGGAAA | -0.184
AGCTCCCG | -0.0713
CATTCAAA | -0.0863
ATATATAC | 0.173
GCTCCGTA | 0.297
